Hit rate of the full screen: of about 270,000 compounds, about 620 (0.23%) were called active. Inconclusive results, whose numbers are uncertain, are shown with a selection of clear calls. Calls come from the whole dose curve; as a rule, active = well fitted inhibition curve with a large enough effect in the polarisation, with a control signal flat (not every such curve was filed as active); inconclusive = small, poorly fitted or top-dose-only effect, or effect the other way, or a change in a side signal; inactive = no such curve, though single readings can be large or run the other way; the % refers to the polarisation. A potency beside an inconclusive call is a rough fit, not a confirmed value. “Side channel” marks fits to a control or component signal instead of the main read-out.
Target: Menin (Homo sapiens) (UniProt O00255)
Test: qHTS Assay for Inhibitors Targeting the Menin-MLL Interaction in MLL Related Leukemias: Competition With Texas Red Labeled MLL-derived Mutant Peptide; for FP activity change, negative = inhibition: % of control where 0% means no effect
Details: fluorescence polarization; FP activity change, negative = inhibition: at 61.6 µM (top of the series)
Potency is the fitted concentration of half-maximal effect; tags give direction and shape of the fitted curve or compound fluorescence and quenching.

Sequence of UniProt O00255 (O00255 whole entry, looked up): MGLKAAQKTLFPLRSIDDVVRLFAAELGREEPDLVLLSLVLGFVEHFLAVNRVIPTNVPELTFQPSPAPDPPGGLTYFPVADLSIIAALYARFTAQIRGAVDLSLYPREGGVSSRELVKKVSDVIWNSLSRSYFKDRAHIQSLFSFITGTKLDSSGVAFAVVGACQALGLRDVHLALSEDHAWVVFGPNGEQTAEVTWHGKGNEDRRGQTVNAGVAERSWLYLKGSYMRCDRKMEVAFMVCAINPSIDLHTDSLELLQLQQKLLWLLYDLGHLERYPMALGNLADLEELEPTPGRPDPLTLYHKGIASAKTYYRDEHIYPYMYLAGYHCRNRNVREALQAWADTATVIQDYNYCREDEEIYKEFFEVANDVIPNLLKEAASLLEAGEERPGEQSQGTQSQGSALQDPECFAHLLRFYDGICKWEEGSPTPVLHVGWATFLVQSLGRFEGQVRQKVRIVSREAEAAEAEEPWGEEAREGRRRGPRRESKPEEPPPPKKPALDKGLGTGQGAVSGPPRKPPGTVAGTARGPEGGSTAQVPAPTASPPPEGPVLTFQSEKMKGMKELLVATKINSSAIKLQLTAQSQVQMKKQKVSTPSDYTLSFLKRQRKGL

Row | SMILES | Potency | FP activity change, negative = inhibition
1 | COc1cccc(/C=N/Nc2snc(SC)c2C#N)c1 | inconclusive: 12.6 µM [quencher, side channel, partial curve] | –
2 | COc1ccc2cc(C(=O)N3CCC(Cc4ccccc4)CC3)[nH]c2c1 | inconclusive: 3.16 µM [inhibitor, full curve] | –
3 | O=c1c2ccccc2nc(CSc2nnnn2-c2ccccc2)n1-c1ccccc1Cl | inconclusive: 10 µM [inhibitor, partial curve, poor fit] | –
4 | O=C(/C=C/c1cccs1)c1ccc(NC(=O)c2cccc(Br)c2)cc1 | inconclusive: 39.8 µM [inhibitor, single point] | –
5 | C=CCOc1ccccc1CN1CCC(Oc2ccc(C(=O)N3CCCCC3)cc2)CC1 | inconclusive: 1.26 µM [fluorescent, side channel, full curve, poor fit] | –
6 | CCc1ccc(OCCCC(=O)Nc2ccc(S(N)(=O)=O)cc2)cc1 | inconclusive: 39.8 µM [fluorescent, single point] | –
7 | CCCOc1cc(N(CC)CC)ccc1/C=C(/C#N)c1nc2ccc(C)cc2[nH]1 | inconclusive: 28.2 µM [fluorescent, side channel, partial curve] | –
8 | CCOC(=O)c1ccc(P(=O)(c2ccccc2)c2ccccc2)cc1 | inconclusive: 39.8 µM [fluorescent, side channel, single point] | –
9 | COc1ccc(NC(=O)Nc2ccc3c(c2)N(C)C(=O)CS3)cc1Cl | inconclusive: 14.1 µM [quencher, side channel, partial curve] | –
10 | Cc1nc2cnc(Nc3ccccc3)nc2n(CCC#N)c1=O | inconclusive: 22.4 µM [inhibitor, single point] | –
11 | CCOC(=O)c1[nH]c2ccc(Cl)cc2c1NC(=O)/C=C/c1ccc2c(c1)OCO2 | inconclusive: 39.8 µM [inhibitor, single point] | –
12 | COc1cc2cc(CN(Cc3cccnc3)C(=O)Nc3ccccc3)c(=O)[nH]c2cc1OC | – | inactive: 5.34%
13 | Cc1[nH]c2c(C)cccc2c1CCNC(=O)c1ccc2c(c1[N+](=O)[O-])C(=O)c1ccccc1C2=O | inconclusive: 7.94 µM [quencher, side channel, partial curve] | –
14 | Cc1ccc2c(c1)N(CC(=O)N1CCC(C)CC1)C(=O)c1cccnc1O2 | inconclusive: 39.8 µM [inhibitor, single point] | –
15 | O=C(COc1ccc([N+](=O)[O-])cc1)Nc1ccncc1 | – | inactive: 2.68%
16 | Cn1c(=O)c(C(=O)NNC(=O)c2ccccc2F)c(O)c2ccccc21 | inconclusive: 25.1 µM [inhibitor, single point] | –
17 | O=C(CSc1nnc(Cc2ccccc2)n1Cc1ccco1)NC1CCCC1 | inconclusive: 44.7 µM [fluorescent, side channel, partial curve] | –
18 | O=C(N/N=C/C=C/c1ccccc1)c1n[nH]c2c1CCC2 | inconclusive: 39.8 µM [fluorescent, side channel, single point] | –
19 | Cc1c(/C=C2\SC(=O)N(CC(=O)Nc3ccc4c(c3)OCO4)C2=O)c2ccccc2n1C | inconclusive: 20 µM [inhibitor, single point] | –
20 | COc1ccccc1N1CCN(CCCCNC(=O)c2ccc3ccccc3c2)CC1 | inconclusive: 17.8 µM [fluorescent, side channel, partial curve] | –

Row | SMILES | Potency | FP activity change, negative = inhibition
21 | CN(C)c1ccc(-c2nc3n(n2)C(c2cccnc2)C2=C(CC(C)(C)CC2=O)N3)cc1 (stereo not drawn) | inconclusive: 39.8 µM [inhibitor, single point] | –
22 | C/C(CC(=O)Nc1ccc(N(C)C)cc1)=N\NC(=O)c1ccccc1O | inconclusive: 31.6 µM [quencher, side channel, single point] | –
23 | CCOCCCn1c(C)nc2c(c1=O)c1nc3ccccc3nc1n2CCC1=CCCCC1 | inconclusive: 6.31 µM [fluorescent, side channel, full curve] | –
24 | O=C(O)CC/C(=N\Nc1ccccc1[N+](=O)[O-])c1cccs1 | inconclusive: 22.4 µM [quencher, side channel, single point] | –
25 | O=C(C/C=N\O)Nc1ccc(Oc2ccccc2)cc1 | inconclusive: 14.1 µM [quencher, side channel, partial curve] | –
26 | Cc1cccc(C(=O)N/C(=C\c2ccco2)C(=O)N2CCCCCC2)c1 | inconclusive: 2 µM [fluorescent, side channel, full curve] | –
27 | COc1ccc(-c2cc(C(=O)Nc3c(C)nn(Cc4ccccc4Cl)c3C)no2)cc1 | – | inactive: -2.75%
28 | CCCC(=O)NC(NC(=S)Nc1ccc(N=Nc2ccccc2)cc1)C(Cl)(Cl)Cl (stereo not drawn) | inconclusive: 3.55 µM [quencher, side channel, full curve] | –
29 | C(=N\N1CCN(C2c3ccccc3-c3ccccc32)CC1)/c1cccnc1 | – | inactive: -23.6%
30 | COc1ccc(-c2cc(-c3ccccc3O)[nH]n2)cc1OC | inconclusive: 22.4 µM [quencher, side channel, partial curve] | –
31 | CS(=O)(=O)N(Cc1ccc(C(=O)NC2CCCC2)cc1)c1ccccc1 | inconclusive: 4.47 µM [fluorescent, side channel, full curve, poor fit] | –
32 | COc1ccc(-c2nc3ccc([N+](=O)[O-])cc3[nH]2)cc1 | inconclusive: 17.8 µM [quencher, side channel, single point] | –
33 | Cc1cccc(Nc2nc(-c3ccc(O)cc3O)cs2)n1 | inconclusive: 11.2 µM [quencher, side channel, partial curve] | –
34 | NC(=O)c1ccc(NC(=O)COc2cccc3ccccc23)cc1 | inconclusive: 39.8 µM [inhibitor, single point] | –
35 | Fc1cccc(-c2cc3nc4c(c(N5CCC6(CC5)OCCO6)n3n2)CCCC4)c1 | – | inactive: 1.65%
36 | C=CCOc1ccccc1CN1CCC(Oc2ccc(C(=O)N3CCCC3)cc2)CC1 | inconclusive: 39.8 µM [inhibitor, single point] | –
37 | CN(C)c1ccc(C=Nc2ccc(N(C)C)cc2)cc1 | inconclusive: 14.1 µM [fluorescent, side channel, partial curve] | –
38 | O=C(NC1CCN(S(=O)(=O)c2ccccc2)CC1)c1ccccc1 | inconclusive: 39.8 µM [fluorescent, side channel, single point] | –
39 | [O-][N+]1=c2ccc(Nc3ccccc3)cc2=NC12CCCCC2 | inconclusive: 12.6 µM [quencher, side channel, partial curve] | –
40 | CCC(CC)C(=O)Nc1nnc(S(=O)(=O)N2CCc3ccccc32)s1 | inconclusive: 35.5 µM [fluorescent, side channel, single point] | –

Row | SMILES | Potency | FP activity change, negative = inhibition
41 | CCOc1ccc(NS(=O)(=O)c2ccc(NC(=S)NC(=O)CC(C)C)cc2)cc1 | inconclusive: 17.8 µM [quencher, side channel, single point] | –
42 | CN1/C(=C\C=C2\N=C(c3ccc(F)cc3)OC2=O)C(C)(C)c2ccccc21 | inconclusive: 39.8 µM [inhibitor, single point] | –
43 | O=C(NCC(=O)N1CCN(C(c2ccccc2)c2ccccc2)CC1)c1ccccc1F | inconclusive: 11.2 µM [fluorescent, side channel, partial curve] | –
44 | Cc1cc(NC(=O)CSc2nnc(-c3cccnc3)n2Cc2ccccc2)no1 | – | inactive: -5.99%
45 | COc1cccc(CC(=O)Nc2nc(-c3ccc(F)c(F)c3)cs2)c1 | inconclusive: 39.8 µM [fluorescent, side channel, single point] | –
46 | O=C(N/N=C/c1cc([N+](=O)[O-])ccc1O)c1cccc(NC(=O)c2cccc(Cl)c2)c1 | inconclusive: 2.82 µM [quencher, side channel, full curve] | –
47 | O=C(Oc1cccc(/C=N/Nc2nc(Nc3ccccc3)nc(N3CCOCC3)n2)c1)c1ccco1 | inconclusive: 5.62 µM [quencher, side channel, full curve] | –
48 | CC(C)C(=O)Nc1nnc(SCC(=O)NCC2CCCO2)s1 (stereo not drawn) | – | inactive: -0.0477%
49 | CCOC(=O)CC(=O)CSc1nc(N)c(C#N)c(-c2ccc(Cl)cc2)c1C#N | inconclusive: 12.6 µM [quencher, side channel, partial curve] | –
50 | CCc1nnc(NC(=O)c2ccc3ccccc3n2)s1 | – | inactive: -2.96%
51 | COC(=O)CN1C(c2ccccc2O)Nc2ccc(Br)cc2C1c1ccccc1 (stereo not drawn) | inconclusive: 39.8 µM [inhibitor, single point] | –
52 | Cc1cc(C(F)(F)F)c(C#N)c(SCC(=O)Nc2nc3cc(Br)ccc3s2)n1 | inconclusive: 22.4 µM [quencher, single point] | –
53 | O=C(CN(c1ccccc1F)S(=O)(=O)c1ccccc1)Nc1ccccc1C(=O)N1CCOCC1 | inconclusive: 10 µM [inhibitor, partial curve, poor fit] | –
54 | O=C(Nc1nc2ccccc2s1)c1ccc(N2CCCCC2)c([N+](=O)[O-])c1 | inconclusive: 20 µM [quencher, side channel, partial curve] | –
55 | O=c1c2ccccc2nc(SCc2nnc(-c3ccccc3)o2)n1-c1ccc(F)cc1F | – | inactive: -9%
56 | COc1cc(NC(=O)N[C@@H](Cc2c[nH]c3ccccc23)C(=O)O)c(C(=O)O)cc1OC | inconclusive: 35.5 µM [quencher, side channel, partial curve] | –
57 | O=C(COC(=O)c1cc(S(=O)(=O)Nc2ccccc2Cl)ccc1O)Nc1nc2ccccc2s1 | inconclusive: 39.8 µM [inhibitor, single point] | –
58 | COc1ccc(NC(=O)c2ccc(-c3ccc(-c4noc(C)n4)cc3C)cc2)cc1N1CCN(C)CC1 | inconclusive: 4.47 µM [fluorescent, side channel, full curve] | –

Source: PubChem BioAssay AID1768 (National Center for Advancing Translational Sciences (NCATS), 2009)
